No constants are given. Whether binding was seen depends on the method and setting. In cells and extracts the contact can be indirect. Some results given as binding are weak or reduced against the parent protein; the word gives no strength. For some assays here: Tags and fused reporters may be left off the sequences shown.
T1: endogenous MDA5 (human (endogenous in HEK293)) (UniProt Q9BYX4)
T1 sequence: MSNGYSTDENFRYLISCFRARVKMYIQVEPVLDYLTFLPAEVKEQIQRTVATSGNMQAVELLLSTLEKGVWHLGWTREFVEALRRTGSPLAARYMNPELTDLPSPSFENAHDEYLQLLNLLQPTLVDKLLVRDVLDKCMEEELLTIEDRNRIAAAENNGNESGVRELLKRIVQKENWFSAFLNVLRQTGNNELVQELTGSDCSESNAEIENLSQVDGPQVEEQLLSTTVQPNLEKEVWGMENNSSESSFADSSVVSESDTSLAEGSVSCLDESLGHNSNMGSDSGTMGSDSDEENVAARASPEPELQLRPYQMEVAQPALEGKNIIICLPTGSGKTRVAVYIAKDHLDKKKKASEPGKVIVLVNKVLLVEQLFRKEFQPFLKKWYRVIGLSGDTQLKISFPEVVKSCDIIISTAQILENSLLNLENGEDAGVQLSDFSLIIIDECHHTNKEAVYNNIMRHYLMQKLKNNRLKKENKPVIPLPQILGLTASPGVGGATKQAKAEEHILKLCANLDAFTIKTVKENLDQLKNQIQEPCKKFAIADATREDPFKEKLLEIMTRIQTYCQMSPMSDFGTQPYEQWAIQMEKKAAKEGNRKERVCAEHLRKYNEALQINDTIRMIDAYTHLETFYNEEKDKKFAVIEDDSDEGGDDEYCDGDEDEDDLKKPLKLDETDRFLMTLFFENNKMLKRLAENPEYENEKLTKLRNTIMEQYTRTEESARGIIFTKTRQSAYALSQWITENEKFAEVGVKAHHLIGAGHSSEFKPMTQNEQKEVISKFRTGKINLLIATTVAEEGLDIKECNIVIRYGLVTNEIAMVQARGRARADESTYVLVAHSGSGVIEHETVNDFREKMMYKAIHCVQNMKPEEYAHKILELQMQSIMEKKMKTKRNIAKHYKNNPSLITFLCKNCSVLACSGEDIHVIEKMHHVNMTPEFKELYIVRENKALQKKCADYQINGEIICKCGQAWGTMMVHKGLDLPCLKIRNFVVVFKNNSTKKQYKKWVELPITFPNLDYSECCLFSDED

The chains behind the UniProt entries cited, without tags or fusion partners.
UniProt Q7Z434: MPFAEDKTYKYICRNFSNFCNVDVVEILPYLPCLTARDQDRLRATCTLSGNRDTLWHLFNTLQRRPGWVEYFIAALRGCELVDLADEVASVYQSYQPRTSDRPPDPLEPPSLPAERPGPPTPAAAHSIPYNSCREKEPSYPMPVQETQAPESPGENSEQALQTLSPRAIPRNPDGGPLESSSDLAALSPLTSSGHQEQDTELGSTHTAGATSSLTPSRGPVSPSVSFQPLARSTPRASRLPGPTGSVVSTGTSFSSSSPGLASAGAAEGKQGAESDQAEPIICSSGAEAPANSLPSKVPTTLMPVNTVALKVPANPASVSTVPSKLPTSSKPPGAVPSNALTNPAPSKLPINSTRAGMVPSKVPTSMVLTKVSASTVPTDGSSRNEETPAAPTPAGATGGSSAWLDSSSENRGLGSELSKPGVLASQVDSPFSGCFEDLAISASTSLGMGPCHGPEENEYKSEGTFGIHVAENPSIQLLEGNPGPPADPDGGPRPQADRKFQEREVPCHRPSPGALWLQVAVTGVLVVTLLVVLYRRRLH

T2: endogenous RIG-I (human (endogenous in HEK293)) (UniProt O95786)
T2 sequence: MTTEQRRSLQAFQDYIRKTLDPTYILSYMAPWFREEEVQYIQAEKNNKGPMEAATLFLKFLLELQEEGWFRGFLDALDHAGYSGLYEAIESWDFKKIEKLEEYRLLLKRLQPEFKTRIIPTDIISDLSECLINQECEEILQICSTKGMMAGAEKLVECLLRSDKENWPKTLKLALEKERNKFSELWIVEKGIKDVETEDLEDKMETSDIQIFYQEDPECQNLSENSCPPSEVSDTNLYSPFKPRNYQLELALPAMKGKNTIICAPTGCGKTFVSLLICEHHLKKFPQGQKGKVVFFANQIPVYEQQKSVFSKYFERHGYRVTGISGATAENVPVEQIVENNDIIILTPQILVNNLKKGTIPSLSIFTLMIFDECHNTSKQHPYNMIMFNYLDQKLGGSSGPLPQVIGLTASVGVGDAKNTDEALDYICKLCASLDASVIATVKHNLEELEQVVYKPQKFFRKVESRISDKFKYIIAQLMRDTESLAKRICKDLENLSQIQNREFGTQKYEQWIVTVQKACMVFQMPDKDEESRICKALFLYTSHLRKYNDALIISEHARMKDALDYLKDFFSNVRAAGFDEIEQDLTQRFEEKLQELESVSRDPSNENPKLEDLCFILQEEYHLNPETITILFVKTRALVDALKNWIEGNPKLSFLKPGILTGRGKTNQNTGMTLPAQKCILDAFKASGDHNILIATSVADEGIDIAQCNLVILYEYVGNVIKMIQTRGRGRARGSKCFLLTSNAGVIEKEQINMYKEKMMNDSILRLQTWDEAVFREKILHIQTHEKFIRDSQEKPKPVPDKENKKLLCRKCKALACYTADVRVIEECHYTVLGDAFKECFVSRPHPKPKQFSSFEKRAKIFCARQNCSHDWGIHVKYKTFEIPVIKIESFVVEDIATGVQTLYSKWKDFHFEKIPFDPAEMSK

T3: TBK1, Q9UHD2
T3 chain: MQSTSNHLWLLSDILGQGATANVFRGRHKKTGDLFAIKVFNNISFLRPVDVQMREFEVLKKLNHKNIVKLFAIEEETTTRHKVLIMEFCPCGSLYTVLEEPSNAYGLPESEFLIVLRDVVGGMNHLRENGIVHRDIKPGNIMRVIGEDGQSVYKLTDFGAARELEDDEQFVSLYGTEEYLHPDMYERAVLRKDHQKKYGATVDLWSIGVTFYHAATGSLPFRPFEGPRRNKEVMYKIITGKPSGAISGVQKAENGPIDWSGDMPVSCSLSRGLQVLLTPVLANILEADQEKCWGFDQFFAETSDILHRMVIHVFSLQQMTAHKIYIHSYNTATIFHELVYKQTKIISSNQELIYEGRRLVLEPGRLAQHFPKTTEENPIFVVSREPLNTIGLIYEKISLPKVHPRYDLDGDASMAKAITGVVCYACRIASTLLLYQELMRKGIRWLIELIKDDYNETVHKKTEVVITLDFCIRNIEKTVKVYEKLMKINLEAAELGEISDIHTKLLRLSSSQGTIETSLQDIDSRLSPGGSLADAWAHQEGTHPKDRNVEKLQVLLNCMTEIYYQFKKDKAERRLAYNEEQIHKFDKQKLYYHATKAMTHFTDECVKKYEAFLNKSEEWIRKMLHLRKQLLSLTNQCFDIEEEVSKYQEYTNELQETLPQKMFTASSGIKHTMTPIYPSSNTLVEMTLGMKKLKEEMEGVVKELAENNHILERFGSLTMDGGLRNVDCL

T4: retinoic acid-inducible gene-I (RIG-I), transfected (human) (UniProt O95786)
T4 sequence: T2 sequence

T5: MDA5, transfected (human) (UniProt Q9BYX4)
T5 sequence: T1 sequence

B1: MDA5, transfected (protein, UniProt Q9BYX4 1-1025)
chain: T1 sequence
B2: endogenous hnRNPM (protein, UniProt P52272 1-730)
chain: MAAGVEAAAEVAATEIKMEEESGAPGVPSGNGAPGPKGEGERPAQNEKRKEKNIKRGGNRFEPYANPTKRYRAFITNIPFDVKWQSLKDLVKEKVGEVTYVELLMDAEGKSRGCAVVEFKMEESMKKAAEVLNKHSLSGRPLKVKEDPDGEHARRAMQKVMATTGGMGMGPGGPGMITIPPSILNNPNIPNEIIHALQAGRLGSTVFVANLDYKVGWKKLKEVFSMAGVVVRADILEDKDGKSRGIGTVTFEQSIEAVQAISMFNGQLLFDRPMHVKMDERALPKGDFFPPERPQQLPHGLGGIGMGLGPGGQPIDANHLNKGIGMGNIGPAGMGMEGIGFGINKMGGMEGPFGGGMENMGRFGSGMNMGRINEILSNALKRGEIIAKQGGGGGGGSVPGIERMGPGIDRLGGAGMERMGAGLGHGMDRVGSEIERMGLVMDRMGSVERMGSGIERMGPLGLDHMASSIERMGQTMERIGSGVERMGAGMGFGLERMAAPIDRVGQTIERMGSGVERMGPAIERMGLSMERMVPAGMGAGLERMGPVMDRMATGLERMGANNLERMGLERMGANSLERMGLERMGANSLERMGPAMGPALGAGIERMGLAMGGGGGASFDRAIEMERGNFGGSFAGSFGGAGGHAPGVARKACQIFVRNLPFDFTWKMLKDKFNECGHVLYADIKMENGKSKGCGVVKFESPEVAERACRMMNGMKLSGREIDVRIDRNA
B3: heterogeneous nuclear ribonucleoprotein M (hnRNPM), Flag- or HA-tagged, transfected, P52272 1-730 (protein)
chain: B2 chain
B4: hnRNPM (aa281-653) (domain or fragment, UniProt P52272 281-653)
chain: RALPKGDFFPPERPQQLPHGLGGIGMGLGPGGQPIDANHLNKGIGMGNIGPAGMGMEGIGFGINKMGGMEGPFGGGMENMGRFGSGMNMGRINEILSNALKRGEIIAKQGGGGGGGSVPGIERMGPGIDRLGGAGMERMGAGLGHGMDRVGSEIERMGLVMDRMGSVERMGSGIERMGPLGLDHMASSIERMGQTMERIGSGVERMGAGMGFGLERMAAPIDRVGQTIERMGSGVERMGPAIERMGLSMERMVPAGMGAGLERMGPVMDRMATGLERMGANNLERMGLERMGANSLERMGLERMGANSLERMGPAMGPALGAGIERMGLAMGGGGGASFDRAIEMERGNFGGSFAGSFGGAGGHAPGVARKAC
B5: hnRNPM (aa204-729) (domain or fragment, UniProt P52272 204-729)
chain: STVFVANLDYKVGWKKLKEVFSMAGVVVRADILEDKDGKSRGIGTVTFEQSIEAVQAISMFNGQLLFDRPMHVKMDERALPKGDFFPPERPQQLPHGLGGIGMGLGPGGQPIDANHLNKGIGMGNIGPAGMGMEGIGFGINKMGGMEGPFGGGMENMGRFGSGMNMGRINEILSNALKRGEIIAKQGGGGGGGSVPGIERMGPGIDRLGGAGMERMGAGLGHGMDRVGSEIERMGLVMDRMGSVERMGSGIERMGPLGLDHMASSIERMGQTMERIGSGVERMGAGMGFGLERMAAPIDRVGQTIERMGSGVERMGPAIERMGLSMERMVPAGMGAGLERMGPVMDRMATGLERMGANNLERMGLERMGANSLERMGLERMGANSLERMGPAMGPALGAGIERMGLAMGGGGGASFDRAIEMERGNFGGSFAGSFGGAGGHAPGVARKACQIFVRNLPFDFTWKMLKDKFNECGHVLYADIKMENGKSKGCGVVKFESPEVAERACRMMNGMKLSGREIDVRIDRN

Tests used:
VISA = VISA (UniProt Q7Z434); experiment: co-IP; HEK293 cells transiently transfected with the indicated plasmids; NP-40 lysis buffer (20 mM Tris-HCl pH 7.4, 150 mM NaCl, 1 mM EDTA, 1% NP-40); immunoprecipitation and immunoblotting
[1] = target: T1, endogenous MDA5 (human (endogenous in HEK293)); experiment: co-IP; endogenous proteins; HEK293 cells treated with IFN-β (50 ng/ml) for 1 hour, then left un-infected or infected with SeV for the indicated times
[2] = target: T2, endogenous RIG-I (human (endogenous in HEK293)); experiment: as above
TBK1, Q9UHD2 = target: T3, TBK1, Q9UHD2; experiment: co-IP; HEK293 cells transiently transfected with the indicated plasmids; NP-40 lysis buffer (20 mM Tris-HCl pH 7.4, 150 mM NaCl, 1 mM EDTA, 1% NP-40); immunoprecipitation and immunoblotting; conditions: remark: other sources report otherwise
[3] = target: T4, retinoic acid-inducible gene-I (RIG-I), transfected (human); experiment: as above
[4] = target: T5, MDA5, transfected (human); experiment: as above

Row | Binder | binding [3] | binding [4] | also measured
1 | B1 | – | – | binding (VISA): binds
2 | B2 | – | – | binding [1]: binds; binding [2]: binds
3 | B3 | – | – | binding (TBK1, Q9UHD2): no binding
4 | B4 | no binding | no binding | –
5 | B5 | no binding | no binding | –
